Measurements published in the supplement of paper PMC11417369.
The other results are listed elsewhere or left out.

system: PfAP2-HC AP2 domain (GST-tagged); assay: gcPBM binding intensity (ln(normalized median fluorescence intensity)); higher = stronger DNA binding
Method in brief: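 Binding intensity is the highest Masliner-normalised natural-log median intensity over replicate spots in either probe orientation. To obtain it, GST-tagged P. falciparum DNA-binding domains made in E. coli were incubated for 1 h on an Agilent 4 × 180k array of primer-extended double-stranded 36-bp intergenic genomic probes plus negative controls. Detection used Alexa488 anti-GST antibody with scanning at 488 nm.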

| Sequence | gcPBM binding intensity (ln) |
| --- | --- |
| TATCACAAAATATACTGTACATACAGGCAGTAATAT [XGTACX_site2487] | 9.7 |
| TTATAAAACCATGTCATCAACATAGGCACAAAAATG [CACACA_negctrl_site1160] | 9.63 |
| ATATGTACATATCTCATGCACTTAACAAAAAAAAAG [GTGCAC_site9898] | 9.56 |
| TATGTATAGATATATACACACTTCTGTGATACGAAA [CACACA_site7003] | 9.66 |
| TAAAGAGTCATGTGGTGTACCTGCTTCACCACATAT [XGTACX_site1288] | 9.4 |
| TATATATTCATAAAGTGTACATGTTTATATATATAT [XGTACX_site7585] | 9.54 |
| TTATTTTTAATATCGGTGCAACAAAAAGGAAAAGAT [GTGCAC_site9482] | 9.81 |
| ATCTTTATTTTTAGCGCACACATAAAATAATAATAA [CACACA_site3458] | 9.83 |
| CAAAGCATTTTATCTACACACATATATAAATAAATA [CACACA_site7500] | 9.77 |
| TATTTTAACTTTTTTTCCTTTATTCATTTTTTTTTC [CACACA_negctrl_site971] | 9.53 |
| TGATGCAAGATATATACACACATATAAATATAAATA [CACACA_site7429] | 9.9 |
| TTTTTTTTTTTATGTGCACACAAAAGATGCTTATAT [CACACA_site2347] | 9.92 |
| TTATGATAACTTTGCACACACTTAGGAAAAGTTATG [CACACA_site6836] | 9.71 |
| ATGCATCATTTATTTGCACACCTATTATATACTTTT [CACACA_site2097] | 9.95 |
| TATATATATATAATATGTACATATATATATTCTTAA [XGTACX_site6154] | 9.49 |
| ATAATTCATGTTTAGTGTACAAAAAATTAAAGCAAC [XGTACX_site8891] | 9.87 |
| AAATAATTTATATGTAGTACATGTTGTAGATAATTT [XGTACX_site1031] | 9.78 |
| GATATAGATATTAATTGTACATATTATTTATTGTTA [XGTACX_site846] | 9.69 |
| TTCTAAAAAGGGTGTACACAAACGAATGGAAAATAA [CACACA_site5483] | 9.82 |

| Sequence | gcPBM binding intensity (ln) |
| --- | --- |
| ATAATTTTTATTTGTACACACATACAGATATATTAT [CACACA_site4701] | 10 |
| GATATGTACTAATACACACACATATATATATATATA [CACACA_site1022] | 10.2 |
| TAAAGGTGTAAAACTGCATGCTGGAGAAAAGTAAAA [TGCATGCA_site591] | 9.77 |
| AATAATACGTTAAATGTTCTTACAAGTTGGTTTCAT [CACACA_negctrl_site1029] | 9.63 |
| AAAAAAAAATTTGTATCACACACGTATTATAAAAAA [CACACA_site6] | 9.83 |
| ATTATATAATATAATGCATGTGTTAATGAAAAATCT [TGCATGCA_site426] | 9.69 |
| AAAAAAAAAAAAAAGTGTACCTTATTATACTTTAAT [XGTACX_site8439] | 9.52 |
| CACACTAAAAGACACACACACACACGCATATAAATA [CACACA_site7874] | 10.8 |
| AAATATATATATATATGTACACACACACATATAAAT [XGTACX_site847] | 10.4 |
| TTGTAGGAATTTATTTTGACTGATAATTAATACGTT [GTGCAC_negctrl_site46] | 9.47 |
| ATTAAACATACATATACACACACACCCACCCACCCA [CACACA_site8057] | 11 |
| TAGTGTAAAAAATACGCATGTGTACAAATATAATAA [TGCATGCA_site498] | 10.1 |
| AATTATACTCACGTTACACACACACTATAAATATAT [CACACA_site7863] | 10.2 |
| AAAAATTTGGCATACACACACACACGCACACGCACA [CACACA_site6422] | 10.6 |
| ATTAATATGAATAAAACACACATATATAACTTGTAA [CACACA_site6989] | 9.79 |
| TGATAATAAGCATACACACACACACCCAAAAAAAAA [CACACA_site721] | 11.2 |
| AACTAAATGTTATTCGCACACGGAATTTATTTAATG [CACACA_site3664] | 9.8 |
| AAATAAAAAAAAAAAAAAAATAACTTAAATGGGATA [TGCATGCA_negctrl_site595] | 9.51 |
| TTTTTTTTTTCTTTTTTTCTCATGAAATTCTAAATG [CACACA_negctrl_site918] | 9.37 |

| Sequence | gcPBM binding intensity (ln) |
| --- | --- |
| ATATATATATATATATATATATATATGATTATTACT [GTGCAC_negctrl_site109] | 9.64 |
| CCTATAAAACCATATACACACATATAAATAAAAAAA [CACACA_site7809] | 9.96 |
| TAAACTATATTTACATGTACATATAATATTAAATAA [XGTACX_site3528] | 9.5 |
| AAAAAAAAATTAGGGGTGCCATTTGCTGCTGTGCTT [GTGCAC_site9913] | 9.59 |
| TTTTGTATTTCTCACACACACATAAGTAAACAATAA [CACACA_site5105] | 10.1 |
| TAGTAAAAGATATACACACACCAAAAAATATAATTA [CACACA_site7142] | 10.5 |
| TATATATGGGTACTAATTCCTTTAATTTCTTTAATT [CACACA_negctrl_site949] | 9.53 |
| AATTATATTCAAAATGGTACACACAATATTTAATTG [XGTACX_site5521] | 9.82 |
| AATAGATATATAAATACACACAAACATACCTATATA [CACACA_site7823] | 10.6 |
| AAACAAAGGGAACATGTGCACTTACAAAAAAAAAGA | 9.75 |
| TCACACCTTTTTGGTTGTACTTAAATTTCTTTTTTT [XGTACX_site6438] | 9.5 |
| TTCCCTTATTTTGTATGTACACAATTTATCATGTTG [XGTACX_site2896] | 9.98 |
| ATATATATATATGCATGTACATATATTTGTTATATC [XGTACX_site3197] | 9.71 |
| ATTTATTTTAATTTTTTTTTTTCTCTTTTGGATCTA [CACACA_negctrl_site1408] | 9.38 |
| TTCTCAAAGTTTACGTGTACATAAATTATATAAATG [XGTACX_site2622] | 9.5 |
| TGTAATATGAAATGTGTACACACGCACCCACAAAAA [CACACA_site8948] | 10.3 |
| ATTAGGCATATTTTCTGTACACAATAATAAAAAAAA [XGTACX_site3957] | 9.29 |
| AATGAATTTAATTCTACTATTTTTTTTTTAAATATT [XGTACX_negctrl_site296] | 9.47 |
